In PubChem BioAssay AID1347073 (National Center for Advancing Translational Sciences (NCATS), 2019):
Out of some 45,000 compounds screened, about 200 (0.44%) were called active. Not shown: some 7% with an inconclusive outcome. Calls come from the whole dose curve; as a rule, active = well fitted activation curve with a large enough effect; inconclusive = small, poorly fitted or top-dose-only effect; inactive = no such curve, though single readings can be large or run the other way. This is one part of the list.

Assay: qHTS of TDP-43 Inhibitors: NCGC Sytravon Library Screen; note: 0% is about no effect; nearly all actives have a fitted effect of over 55% in size
Conditions: yeast TDP-43 toxicity rescue, BacTiter-Glo growth, 24 h; series mostly up to 46.1 µM; growth rescue (activation): at the top concentration
Outline: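 TDP-43-expressing yeast, pregrown in raffinose, seeded at OD600 0.02 in galactose medium with compound for 24 hr at 30 deg C. Growth read by BacTiter-Glo luminescence, so rescue of toxicity appears as activation.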

Compound | growth rescue (activation)
CC(C)CC1NC(=O)N(Cc2nc3ccccc3s2)C1=O (stereo unspecified) | inactive: 11.6%
O=c1[nH]c2sc3c(c2c(=O)n1Cc1ccccc1)CCC3 | inactive: -3.27%
Cc1c(C(=O)O)cccc1-c1ccc(C=O)o1 | inactive: 17.9%
COc1cccc(NC(=O)NC2(C(=O)N3CCC(O)CC3)CCCCC2)c1 | inactive: 15.2%
COc1ccc(CCNC(=O)CSCc2ccc(F)cc2)cc1OC | inactive: 5.01%
COc1ccc(N=C2NC(=O)S/C2=C\c2ccc(N(C)C)cc2)cc1 | inactive: -1.5%
Cc1c(C)c2ccc(OCC(=O)N3CCOCC3)c(C)c2oc1=O | inactive: 3.3%
COC(=O)N/N=C\c1cc2c(cc1Br)OCO2 | inactive: -6.55%
COC(=O)c1ccc(Nc2cc(C)nc3ccccc23)cc1 | inactive: 12%
CC(OC(=O)c1ccc(S(=O)(=O)NCc2ccco2)cc1)C(=O)Nc1ccc(Cl)cn1 (stereo unspecified) | inactive: -18.1%
O=S(=O)(c1ccccc1)N(CC(O)CN1CCCC1)c1ccccc1 (stereo unspecified) | inactive: -7.86%
O=C(c1cccc(Br)c1)N1CCN(c2cnn(-c3ccccc3)c(=O)c2Cl)CC1 | inactive: 20.3%
CCOCCCNC(=O)c1cn(CC(C)C)c(=O)c2c1c1ccccc1n2C | inactive: 7.15%
Cc1ccc(S(=O)(=O)N(CC(=O)Nc2ccccc2C(=O)O)c2ccccc2C)cc1 | inactive: -2.12%
C=CCn1c(SCC(=O)NC2CCCCC2)nnc1-c1cccnc1 | inactive: 6.95%
O=C(NCc1ccccc1)NC(O)C(Cl)(Cl)Cl (stereo unspecified) | inactive: -10.6%
COCCNC(=O)C1(C)CCCN(Cc2ccc(-c3ccccn3)cc2)C1 (stereo unspecified) | inactive: 0.297%
Cc1ccc(C)n1-c1nccc(-c2ccco2)n1 | inactive: 28.1%
COc1cccc(OC)c1OCCN1CCC(C(=O)NC(c2ccc3c(c2)OCO3)c2ccccn2)CC1 (stereo unspecified) | inactive: -8.67%
O=C(NCc1ccc(Cl)cc1)c1nccnc1CO | inactive: 4%
N#C/C(=C\c1ccccc1)C(=O)Nc1cc(S(=O)(=O)N2CCOCC2)ccc1N1CCCC1 | inactive: -6.43%
CC(=O)Nc1ccc(/C=C2/Sc3ccccc3C2=O)cc1 | inactive: 0.867%
COc1cccc(NC(=O)c2cc(Cl)nnc2Cl)c1 | inactive: -7.07%

Compound | growth rescue (activation)
COc1ccc(S(=O)(=O)N2CCCC(C(=O)NCc3ccc(F)cc3)C2)cc1 (stereo unspecified) | inactive: 1.06%
Cc1ccc(C)c2[nH]c(=O)c(CN(CCCN(C)C)C(=O)NCc3ccccc3)cc12 | inactive: -9.42%
COc1ccc(-n2ccnc2CN2CCCC(CO)(Cc3cccc(OC)c3)C2)cc1 (stereo unspecified) | inactive: 6.49%
Cc1cc2oc(=O)cc(CN3CCCCC3C)c2cc1C(C)C (stereo unspecified) | inactive: 0.232%
O=C(Nc1nc2ccccc2s1)c1ccc(OCC2CCCO2)cc1 (stereo unspecified) | inactive: 26%
COc1ccc(NC(=O)c2nnn(CC(=O)Nc3cccc(C)c3C)c2N)c(OC)c1 | inactive: 3.9%
NC(=O)Nc1ccc(Cl)cc1 | inactive: 5.16%
CSc1ccccc1NC(=O)COC(=O)c1ccccc1Cc1ccccc1 | inactive: 2.33%
CCN(CC)c1ccc(N=C2C(=O)Nc3ccccc32)cc1 | inactive: -5.98%
CCNC(=O)c1cc(Cl)ccc1OC | inactive: 22.3%
COc1nnc(-c2ccc(C)c(S(=O)(=O)NCC3CCCO3)c2)c2ccccc12 (stereo unspecified) | inactive: -8.58%
COCCCN1C(=O)C(=O)/C(=C(/O)c2ccc3c(c2)OCCO3)C1c1ccc(C(=O)OC)cc1 (stereo unspecified) | inactive: 4.17%
CCOc1ccc(CN2C(=O)C(=O)c3cccc(C)c32)cc1OC | inactive: -18.4%
COc1ccc(C(=O)NCC(=O)N2CCN(C(=O)c3ccco3)CC2)cc1[N+](=O)[O-] | inactive: -2.35%
Cc1cc(Br)ccc1N=C1NC(=O)CS1 | inactive: 11.3%
Cc1c(NC(=O)c2ccc(S(=O)(=O)N(C)c3ccccc3)cc2)c(=O)n(-c2ccccc2)n1C | inactive: -8.3%
COc1ccc(/C=C/C(=O)Nc2cccc(F)c2)cc1S(=O)(=O)N1CCOCC1 | inactive: 4.99%
CN(CCc1ccccn1)C(=O)CCC1CCCN(C(=O)NC2CCCCC2)C1 (stereo unspecified) | inactive: 3.84%
CC1CCN(C(=O)COC(=O)c2n[nH]c3ccccc23)CC1 | inactive: -19.3%
COCCNC(=O)CCn1nc(-c2ccc(C)cc2)ccc1=O | inactive: 8.69%
O=[N+]([O-])c1ccc(CN2C=NS(=O)(=O)c3ccccc32)cc1 | inactive: 6.32%
C=CCn1c(SCC(=O)Nc2ccc(O)cc2)nc2sc(C)c(C)c2c1=O | inactive: 14.9%
O=C(O)c1cccc2c(-c3ccccc3)c(-c3ccccc3)[nH]c12 | inactive: 13.7%

Compound | growth rescue (activation)
O=C(CSCc1ccc(Cl)cc1)Nc1ccc(S(=O)(=O)N2CCOCC2)cc1 | inactive: 19.5%
CC1(C(=O)NS(=O)(=O)c2ccccc2)CCN1C(=O)Cc1cccs1 (stereo unspecified) | inactive: -4.11%
CCCCCOc1ccccc1CN1C(=O)C(=O)c2cc(C)ccc21 | inactive: -7.23%
COc1cccc(CNC(=O)COC(=O)c2nn(C)c(=O)c3ccccc23)c1 | inactive: 1.39%
COc1ccccc1NC(=O)COC(=O)C1=NN(c2ccccc2)C(=O)CC1 | inactive: -3.49%
CC1CCN(C(=O)c2ccc3c(c2)NC(=O)CN3)CC1 | inactive: 6.03%
O=C(O)CCc1ccc(-c2ccc(F)cc2)n1CC(=O)O | inactive: 6.81%
COc1ccc(Cn2c(-c3ccc(OC)cc3)n[nH]c2=S)cc1 | inactive: 14.8%
O=[N+]([O-])c1ccc2nc(CCCO)[nH]c2c1 | inactive: -14.3%
CCOC(=O)N(C)c1c(CC)nc2c(OCc3ccc(Cl)cc3Cl)cccn12 | inactive: -3.17%
CN(c1ccc(C(=O)NCCSC(C)(C)C)cc1)S(=O)(=O)c1ccccc1 | inactive: 16.4%
O=C(/C=C/c1cccnc1)c1ccc(F)c(F)c1 | inactive: -10.1%
COCCSc1ccccc1C(=O)Nc1ccc(Cl)cc1 | inactive: -4.77%
COc1ccc(Nc2nc3ccc(C)cn3c(=O)c2/C=N/O)cc1 | inactive: -1.24%
O=C(Cc1coc2ccc3ccccc3c12)Nc1nnc(C2CC2)s1 | inactive: 1.03%
CCN(CC)c1ccc(C=C2C(=O)OC(C)(C(C)(C)C)OC2=O)cc1 (stereo unspecified) | inactive: 2.53%
Cc1c(Cl)cccc1NC(=S)/C(=C(\[O-])c1ccc(Cl)s1)[n+]1ccccc1 | inactive: 23.9%
O=S(=O)(/N=C(/Nc1cccc2ccccc12)c1ccccc1)c1ccccc1 | inactive: 24.1%
CC(C)CNC(=O)C1(C)CCCN1C(=O)c1cccnc1Oc1ccccc1 (stereo unspecified) | inactive: -4.08%
CCCCCSc1nnc(-c2ccccc2NC(C)=O)c(=O)[nH]1 | inactive: -19.3%
COc1ccc(C(=O)NC(=S)Nc2cccnc2)cc1Cl | inactive: -29.6%
Cc1cc(C)cc(NC(=O)C(NCC2CCCO2)c2ccccc2)c1 (stereo unspecified) | inactive: 10.7%
Cc1ccc(C(OC(=O)c2ccco2)C(=O)NC2CCCC2)cc1 (stereo unspecified) | inactive: 23.8%

Compound | growth rescue (activation)
CCOC(=O)C1C(c2cccc([N+](=O)[O-])c2)C2C(=O)NN=C2CC1(C)O (stereo unspecified) | inactive: 11.3%
O=C(O)c1nn(CC(=O)N(C2CCCCC2)C2CCCCC2)c(=O)c2ccccc12 | inactive: 4.5%
Cc1cc(C)nc(SCC(=O)N/N=C/c2ccc3c(c2)OCO3)n1 | inactive: 23.4%
Cc1c(Cl)cnc(NC(=O)COC(=O)c2cccc(S(=O)(=O)N3CCc4ccccc4C3)c2)c1Cl | inactive: 10.2%
O=C(C1CC(=O)N(c2ccc(Cl)cc2)C1)N1CCCCCC1 (stereo unspecified) | inactive: -8.06%
O=C(CS(=O)(=O)c1ccccc1)Nc1ccccn1 | inactive: 3.91%
Cc1cc(C)c(S(=O)(=O)N(C)CC(=O)NCCCn2ccnc2)c(C)c1 | inactive: -4.42%
Cc1ccc(-c2csc(NC(=O)COc3ccc(N(C)S(=O)(=O)c4ccc(C)cc4)cc3)n2)cc1 | inactive: -16.7%
C=CCc1cccc2cc(C(=O)Nc3ccccc3C(=O)O)c(=O)oc12 | inactive: -23.4%
COc1ccc(COC(=O)CCc2cc(OC)c(OC)c(OC)c2)cc1F | inactive: 5.09%
O=C(CCc1nnc(Cc2ccc(-c3ccccc3)cc2)o1)NCC1CC1 | inactive: 10.7%
Cc1ccc(NC(=O)CN(C)C(=O)c2ccccn2)cc1 | inactive: 25.2%
O=C(Nc1ccccc1OC(F)(F)F)c1ccc([N+](=O)[O-])cc1 | inactive: 1.03%
O=C(CC12CC3CC(CC(Br)(C3)C1)C2)Nc1nncs1 | inactive: 4.55%
Cc1ccc(NC(=O)CN(C)CCOc2ccccc2)c([N+](=O)[O-])c1 | inactive: -7.64%
CC(/C=N/n1c(-c2ccco2)n[nH]c1=S)=C\c1ccco1 | inactive: 5.84%
Cc1ccc(CNC(=O)C2CCN(C(=O)Nc3ccccc3)CC2)cc1 | inactive: 2%
c1ccc2c(SCc3cn4ccccc4n3)nncc2c1 | inactive: -2.16%
CCc1c(C(C)=O)oc2ccc3c(C)cc(=O)oc3c12 | inactive: -21.8%
Nc1nc(SCC(=O)c2ccc(Br)s2)n[nH]1 | inactive: 7.87%
CCOc1ccccc1NC(=O)CCNC(=O)Cn1ccc2ccccc2c1=O | inactive: 2.69%
Cc1oc2c(C)c(O)ccc2c(=O)c1N1C(=O)c2ccccc2C1=O | inactive: 19.7%
Cc1nnc(SC(C)C#N)n1-c1ccccc1 (stereo unspecified) | inactive: 1.24%

Compound | growth rescue (activation)
C/C(=N\NC(=O)Cc1c(Cl)cccc1Cl)c1cccnc1 | inactive: 3.31%
CCOC(=O)c1cc(-c2ccccc2)sc1NC(=O)CCN1C(=O)c2ccccc2C1=O | inactive: 8.82%
O=C(CSc1nnc2ccccn12)NNC(=O)c1cccc(Cl)c1 | inactive: 5.94%
O=C(O)c1cccnc1SC1CC(=O)N(c2ccc(OC(F)F)cc2)C1=O (stereo unspecified) | inactive: -6%
CN(C)C(=O)c1ccc(Nc2nc(-c3cccs3)nc3ccccc23)cc1 | inactive: 6.57%
Fc1cc(F)cc(NC(=S)Nc2ccccc2N2CCOCC2)c1 | inactive: 5.21%
Cc1ccccc1OCCOCCN1CCCCCC1 | inactive: 0.348%
CC(Oc1ccc(C#N)cc1)C(=O)Nc1ccc(-n2cnnn2)cc1 (stereo unspecified) | inactive: -12%
Cc1ccc(S(=O)(=O)Nc2ccc(NC(=O)/C=C/C(=O)O)cc2)cc1 | inactive: 3.84%
O=C(CNCc1ccco1)Nc1ccc(Oc2ccccc2)cc1 | inactive: 6.67%
O=C(NCC(=O)N(c1ccccc1)C(C(=O)NCC1CCCO1)c1ccccc1)c1cccs1 (stereo unspecified) | inactive: 7.42%
CCCSc1ncc(Cl)c(C(=O)N2CCN(c3cccc(Cl)c3)CC2)n1 | inactive: 25.3%
O=C(C1CC(=O)N(c2ccc(F)cc2)C1)N1CCN(c2ccccc2)CC1 (stereo unspecified) | inactive: 0.0691%
Cc1csc(-c2cnn(-c3ccccc3)c2NC(=O)c2cccc(F)c2)n1 | inactive: 24.7%
CCn1c(CNC(=O)c2ccccc2Br)nnc1SCC(=O)NC1=NCCS1 | inactive: 0.709%
O=C(c1ccc2snnc2c1)N1CCSCC1 | inactive: 14.2%
CCOc1ccc(CCNC(=O)CCc2nc3ccccc3[nH]2)cc1OCC | inactive: -3.66%
CCC(=O)Nc1nc2ccccc2n1CCN1CCOCC1 | inactive: 30.2%
COC(=O)[C@H](CCSC)NC(=O)Nc1cc(OC)cc(OC)c1 | inactive: 2.98%
